# Measured values: PubChem BioAssay AID1508642 (National Center for Advancing Translational Sciences (NCATS), 2021)
# Screen size: about 43,000 compounds; about 200 (0.47%) were called active. Inconclusive results (about 12%) are left out. Calls come from the whole dose curve; as a rule, active = well fitted cell-killing curve with a large enough effect; inconclusive = small, poorly fitted or top-dose-only effect, or effect the other way; inactive = flat fitted curve, though single readings scatter. Some of the results follow.
# Assay: Cell viability qHTS assay in S16 Pmp22-F2sN cells; note: nearly all actives have a fitted effect of over 65% in size
# Settings: S16 Pmp22-F2sN Schwann cells (luciferase reporters placed in the Pmp22 gene) viability, CellTiter-Glo, 24 h; series mostly up to 57.5 µM; activity change, negative = cytotoxicity: at the top concentration
# Summary of the method: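 Rat S16 Schwann reporter line, 24 h treatment with library compounds delivered at 23 nL per well. Cell viability by CellTiter-Glo luminescence.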
# % is set by controls: 0 for no effect and ±100 for the full control effect.
row,SMILES,"activity change, negative = cytotoxicity"
1,Cc1ccc(S(=O)(=O)Nc2nc3n(n2)C(c2ccc(F)cc2)C=C(c2ccccc2)N3)cc1 (stereo unspecified),inactive: 7.18%
2,CC1=C(C(=O)Nc2ccc(Cl)cc2)C(CC(C)C)n2nc(SCc3ccccc3C)nc2N1 (stereo unspecified),inactive: -2.54%
3,COc1ccc(C2=NC(C)(C)N(CC(=O)Nc3cccc(C)c3)C2=O)cc1,inactive: -27.8%
4,CN(C)C(=O)c1c(NC(=O)c2ccccc2F)sc2c1CCCC2,inactive: 1.63%
5,CC(=O)Nc1ccc(S(=O)(=O)NCC2CCC(C(=O)NCCN(CC(C)C)CC(C)C)CC2)cc1 (stereo unspecified),inactive: 1.51%
6,COC(=O)c1ccc(C(=O)OC)c(NC(=O)c2ccc(-c3ccccc3)s2)c1,inactive: 5.5%
7,COc1cccc(-c2nc(S(=O)(=O)c3ccc(C)cc3)c(N3CCCCC3)o2)c1,inactive: -9.84%
8,COc1ccccc1CNC(=O)c1ccc2nc(CCc3ccccc3)oc2c1,inactive: -1.63%
9,CCOC(=O)c1c(C)oc2ncnc(Nc3ccc(OC)c(OC)c3)c12,inactive: -2.27%
10,COc1ccc(Cn2c(=O)c3cccnc3n(Cc3cccc(F)c3)c2=O)cc1,inactive: 11.7%
11,COc1ccc(-c2cc3nc(C)c(CCC(=O)NC4CCCCC4)c(C)n3n2)c(OC)c1,inactive: 1.38%
12,CCOC(=O)c1ccccc1NC(=O)CSc1nccn1Cc1ccco1,inactive: -4.51%
13,COc1ccccc1NC(=O)c1c(C)cc(C)nc1SCC(=O)c1ccc(Cl)cc1,inactive: -4.17%
14,CC(C)Oc1ccc(C(=O)N(Cc2ccco2)Cc2cccs2)cc1,inactive: -15.6%
15,O=C(CSc1ncc(S(=O)(=O)c2ccc(Cl)cc2)c(=O)[nH]1)Nc1cccc(C(F)(F)F)c1,inactive: -2.39%
16,Cc1cccc(C)c1NC(=O)c1sc(-n2nc(C)c(Cc3ccccc3)c2C)nc1C,inactive: 2.19%
17,Cc1cc(OCC(=O)N(Cc2ccc(N(C)C)cc2)CC2CCCO2)ccc1Cl (stereo unspecified),inactive: -4.71%
18,NS(=O)(=O)c1ccc(NC(=O)C2Cc3ccccc3N2C(=O)c2ccccc2)cc1 (stereo unspecified),inactive: -18.8%
19,Cc1ccccc1C(=O)n1nc(-c2cccnc2)nc1NCc1ccccc1,inactive: 5.22%
20,COc1ccc(OC)c(CCNC(=O)Cn2ncc3c([nH]c4ccccc43)c2=O)c1,inactive: 14.2%
21,CCn1cc2nc(SCC(=O)Nc3ccccc3C(F)(F)F)n(Cc3ccc(C)cc3)c(=O)c2n1,inactive: -4.22%

row,SMILES,"activity change, negative = cytotoxicity"
1,COC(=O)c1nnn(CC(=O)NC(=O)Nc2c(C)cccc2C)c1C(=O)OC,inactive: 8.51%
2,CC1Cc2ccccc2N1S(=O)(=O)c1nnc(NC(=O)c2ccccc2)s1 (stereo unspecified),inactive: 3%
3,COc1ccc(C2CC(=O)c3cc(-c4nc(-c5ccc(Cl)cc5)cs4)c(=O)[nH]c3C2)cc1OC (stereo unspecified),inactive: 2.38%
4,COCCCNC(=O)CCC(=O)NNc1nc2ccccc2c2nc(C)nn12,inactive: 6.27%
5,CC(C)Oc1ccc(-c2nc3c(C#N)c[nH]n3c2NC2CCCCC2)cc1,inactive: -7.31%
6,COc1ccc(N2CC(NC(=O)C(c3ccccc3)c3ccccc3)CC2=O)cc1OC (stereo unspecified),inactive: 4.63%
7,Cc1ccc(Cn2c(C(C)NC(=O)c3ccccc3)nc3ccccc32)cc1 (stereo unspecified),inactive: -1.03%
8,CCOc1ccccc1CNc1nc2nc(C)cc(C)n2n1,inactive: 1.81%
9,Cn1ccc2cc(S(=O)(=O)N3CCN(C(=O)Nc4ccc(F)cc4F)CC3)ccc21,inactive: 2.02%
10,CCOC(=O)c1c(C)[nH]c(CCC(=O)Nc2ccc(OC)c(OC)c2)c1C,inactive: -3.82%
11,Cc1noc(C)c1S(=O)(=O)N1CCC(C(=O)N2CCN(c3cccc(C(F)(F)F)c3)CC2)CC1,inactive: -0.777%
12,CC(C)NC(=O)CCC(=O)N1Cc2ccccc2Oc2ncccc21,inactive: 10.4%
13,COc1ccc(-c2cc3ccc(O)c(CN4CCC(C)CC4)c3oc2=O)cc1OC,inactive: -1.24%
14,Cc1cccc(Cn2cccc2CNS(=O)(=O)c2ccc(Br)cc2)c1,inactive: -2.19%
15,COc1cc(-c2nnc(SCCOc3cc(C)cc(C)c3)o2)cc(OC)c1OC,inactive: 15.6%
16,Cc1cc(OC(C)C(=O)Nc2sc3c(c2C(N)=O)CCCC3)ccc1Cl (stereo unspecified),inactive: 12.2%
17,CC(NC(=O)CN1C(=O)c2cccnc2Oc2ccc(Cl)cc21)c1ccccc1 (stereo unspecified),inactive: -1.6%
18,Cc1ccccc1CN1C(=O)c2ccccc2S(=O)(=O)c2ccc(C(=O)OCC3CCCO3)cc21 (stereo unspecified),inactive: 1.51%
19,Cc1ccc(C(C)C)c(OC(C)C(=O)NCC2(N(C)C)CCCCC2)c1 (stereo unspecified),inactive: -0.28%
20,COc1ccc(S(=O)(=O)Nc2cc(S(=O)(=O)c3ccccc3)c(O)c(C)c2C)cc1,inactive: 10.2%
21,O=C(Cn1cc(SCc2ccc(C(F)(F)F)cc2)c2ccccc21)N1CCCC1,inactive: 3.08%

row,SMILES,"activity change, negative = cytotoxicity"
1,CCCOc1ccc(-c2nonc2NC(=O)c2oc3ccc(C)cc3c2C)cc1OCCC,inactive: 2.67%
2,CCOC(=O)N1CCC(NC(=O)c2cnn(-c3cccc(Cl)c3C)c2C2CCN(C(=O)OC(C)(C)C)CC2)CC1,inactive: 1.31%
3,COc1ccc(OC)c(NC(=O)c2cc(CN3CCCC3)on2)c1,inactive: -0.264%
4,O=C(CC1C(=O)OCCN1Cc1ccccc1)Nc1cccc(C(F)(F)F)c1 (stereo unspecified),inactive: -18.6%
5,CN1CCN(c2nc3c(S(=O)(=O)c4ccc(Br)cc4)nnn3c3ccsc23)CC1,inactive: -14.9%
6,Oc1ccc(Cl)cc1C1=Nc2ccccc2N=C(c2cccc(Br)c2)C1,inactive: 2.45%
7,COc1cccc(CN2CCc3nc(N4CCN(c5ncccn5)CC4)ncc3C2)c1,inactive: -27.8%
8,CCc1sc(Nc2cccc(Cl)c2C)nc1-c1cc2cccc(OC)c2oc1=O,inactive: -8.97%
9,Cc1cccc(-c2nc3c4ccccc4nc(NCc4ccc(Cl)cc4)n3n2)c1,inactive: 4.76%
10,CC(C)Cn1c(=O)c2sccc2n2c(CCCC(=O)NCc3ccccc3Cl)nnc12,inactive: 4.49%
11,COc1ccc(NC(=O)CSc2oc(-c3ccco3)nc2S(=O)(=O)c2ccc(Br)cc2)c(OC)c1,inactive: -2.77%
12,CCc1ccc2oc(-c3cc(NC(=O)C(C)C)cc(C)c3O)nc2c1,inactive: 11.8%
13,Cc1cc(C)cc(OCCCn2c(CCNC(=O)C3CCCCC3)nc3ccccc32)c1,inactive: -18.8%
14,COc1ccc(CCNC(=O)CCCn2c(=O)c3ccccc3n(Cc3c(C)cc(C)cc3C)c2=O)cc1OC,inactive: 12.9%
15,CCC(=O)N1c2ccc(S(=O)(=O)N3CCC(C)CC3)cc2CC1C (stereo unspecified),inactive: 8.76%
16,CCC(=O)Nc1ccc(-c2nnc3c4ccccc4c(C)nn23)cc1,inactive: 0.475%
17,Cc1ccc(NC(=O)CSc2nc(=O)n(CCCN(C)C)c3c2CCC3)cc1F,inactive: 12.6%
18,CCCc1ccc(S(=O)(=O)N2CCC(Oc3ccc(-n4cnnn4)cc3)CC2)cc1,inactive: -15.9%
19,CNC(=O)c1ccc(Nc2nnc(-c3ccc(C)c(S(=O)(=O)N(C)C)c3)c3ccccc23)cc1,inactive: 17.5%
